In PubChem BioAssay AID686978 (National Center for Advancing Translational Sciences (NCATS), 2013):
Values joined by “and” are separate entries in the source; they are usually repeats but may differ in a detail not shown here. Equal entries are not always repeated. The campaign covered roughly 420,000 compounds. About 64,000 (15%) were called active. Inconclusive results, whose numbers are uncertain, are shown with a selection of clear calls. The call rests on the fitted dose curve; in most records, active means well fitted inhibition curve with a large enough effect; inconclusive means small, poorly fitted or top-dose-only effect; inactive means flat fitted curve, though single readings scatter. A potency beside an inconclusive call is a rough fit, not a confirmed value.

test: qHTS for Inhibitors of human tyrosyl-DNA phosphodiesterase 1 (TDP1): qHTS in cells in absence of CPT; settings: DT40 Tdp1-/- hTDP1 cells, no CPT, ATP luminescence, 48 h; activity change, negative = growth inhibition: at 46.2 µM (top of the series) unless noted; further: nearly all actives have a fitted effect of over 55% in size
Procedure, shortened: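 Stably hTDP1-transfected Tdp1-null chicken DT40 cells were treated with library compounds minus camptothecin and grown for at least 48 hr at 37 °C, after which cellular ATP was quantified by luminescence.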
On the % scale 0 is the no-effect control and ±100 the full control effect; potency means the concentration at half of the fitted maximal effect; tags describe the fitted curve by direction and shape.

Row | Compound | activity change, negative = growth inhibition | Potency
1 | O=c1[nH]cnc2c1nc(NCc1ccccc1)n2C1O[C@@H](CO)[C@H](O)[C@@H]1O (stereo partly specified) | inactive: -20.8% | 
2 | Cc1cccc(S(=O)(=O)NC(=O)C2(C)CCN2C(=O)CCC2CCCC2)c1 (stereo unspecified) | inactive: 16.3% | 
3 | C/C(=N\NC(=O)CN(c1ccccc1Br)S(C)(=O)=O)c1cccs1 |  | inconclusive: 18.4 µM [inhibitor, single point]
4 | C=CC[C@H](CC(=O)NCCO)C(=O)NC[C@@H](OC(=O)[C@@H](CC=C)CC(=O)OC(C)(C)C)c1ccccc1 |  | inconclusive: 25.9 µM [inhibitor, single point]
5 | CCOc1ccccc1NC(=O)CCS(=O)(=O)c1ccc(Br)cc1 | inactive: -21.9% | 
6 | CCN1CCN(C(=O)CSc2cc(=O)n(CC)c3ccccc23)CC1 | inactive: -13.2% | 
7 | CCC(C)c1ccccc1N=Cc1ccc2c(c1)OCO2 (stereo unspecified) |  | inconclusive: 29.1 µM [inhibitor, single point]
8 | CCCC(=O)C1=C(O)C(C(=O)OC)C(C)(C)CC1=NCCc1ccccc1 (stereo unspecified) |  | inconclusive: 20.6 µM [inhibitor, single point]
9 | CCOc1cc(C(=O)N/N=C/c2ccoc2)cc(OCC)c1OCC | inactive: 6.48% | 
10 | COc1ccc(CNCc2ccc(C(=O)O)s2)cc1 | inactive: 8.18% | 
11 | CCCCC(=O)N/C(N)=N/c1nc2ccccc2o1 |  | inconclusive: 29.1 µM [inhibitor, single point]
12 | C/C(=N\NC(=O)Cc1ccc(Cl)cc1)c1ccccn1 |  | active: 2.31 µM
13 | CCOc1ccccc1NC(=O)CSc1ncc2c(n1)-c1ccccc1N(CC)S2(=O)=O |  | active: 16.4 µM
14 | CCN1CCN(C(=O)CNC(=O)c2nn(-c3ccc(OC)cc3)c(=O)c3ccccc23)CC1 | inactive: 4.32% | 
15 | COc1ccc(N(Cc2cc3ccccc3[nH]c2=O)S(=O)(=O)c2ccc(C)cc2)cc1 |  | inconclusive: 11.6 µM [inhibitor, partial curve, poor fit]
16 | Cc1nc(N)nc(SCc2ccc([N+](=O)[O-])cc2)c1N |  | active: 25.9 µM
17 | COc1ccc(NC(=O)c2nc(SCc3ccc(F)cc3)ncc2Cl)cc1 |  | inconclusive: 10.3 µM [inhibitor, partial curve]
18 | CC(=O)Nc1ccc(NC(=O)CC2SC(=O)N(CC(=O)c3ccccc3)C2=O)cc1 (stereo unspecified) |  | active: 20.6 µM
19 | CCOc1ccc(NC(=O)c2sc(-n3nc(C)c(CCC(C)C)c3C)nc2C)cc1 |  | inconclusive: 25.9 µM [inhibitor, single point]
20 | C=CCn1c(-c2ccccc2)nc2nc3ccccc3nc21 |  | active: 18.4 µM
21 | CCCCc1nc2c(=O)[nH]c3ccccc3c2o1 | inactive: -13.7% | 
22 | C/C(CC(=O)Nc1cccc(Cl)c1C)=N\NC(=O)Cc1csc(N)n1 | inactive: 16.5% | 
23 | CC(=O)N1c2ccccc2Oc2cc3ccccc3cc21 | inactive: -6.6% | 

Row | Compound | activity change, negative = growth inhibition | Potency
24 | C=CCNC(=S)N/N=C(\C)c1ccc(OC)cc1 |  | inconclusive: 29.1 µM [inhibitor, single point]
25 | C=CCSc1nnc(NC(=O)CSc2nc(CCC)cc(=O)[nH]2)s1 |  | inconclusive: 8.2 µM [inhibitor, partial curve]
26 | N#Cc1cccc(-c2cncnc2-n2ccnc2)c1 | inactive: 15% | 
27 | S=C(NCCc1ccccn1)Nc1ccc(Cl)cc1Cl |  | inconclusive: 29.1 µM [inhibitor, single point]
28 | O=C(Nc1ccc(S(=O)(=O)NCc2ccco2)cc1)c1ccncc1 |  | inconclusive: 16.4 µM [inhibitor, partial curve]
29 | Cc1ccc(NC(=O)c2cc(S(=O)(=O)c3ccccc3)ccc2Cl)cc1 |  | inconclusive: 29.1 µM [inhibitor, single point]
30 | CCC(C)Nc1nc2c(c(=O)[nH]c(=O)n2C)n1Cc1ccc(F)cc1 (stereo unspecified) |  | inconclusive: 11.6 µM [inhibitor, partial curve]
31 | Cc1ccccc1Nc1c(-c2ccc(N3CCOCC3)cc2)nc2cccc(C)n12 |  | inconclusive: 18.4 µM [inhibitor, single point]
32 | CCC(=O)Nc1ccc(N2CCCCC2)c(C(=O)Nc2ccc(OC)cc2)c1 |  | inconclusive: 25.9 µM [inhibitor, single point]
33 | CCOc1ccccc1CNC(=O)c1ccc2nc(N3CCC(C)CC3)sc2c1 |  | inconclusive: 18.4 µM [inhibitor, single point]
34 | COc1ccc(OC)c(C=Nc2ccccc2-c2nc3ccccc3[nH]2)c1 |  | inconclusive: 29.1 µM [inhibitor, single point]
35 | Cc1cc(NC(=O)CSc2nnc(C(C)N(C)C)n2Cc2ccccc2)no1 (stereo unspecified) | inactive: -17.9% | 
36 | COC(=O)c1cc2sccc2n1Cc1nc(-c2cccc(Cl)c2)oc1C |  | inconclusive: 18.4 µM [inhibitor, single point] and inconclusive: 20.6 µM [inhibitor, single point]
37 | C=Cc1ccc(Cn2c(C(=O)O)c(CNCCc3ccco3)c3ccc(C)cc32)cc1 |  | inconclusive: 29.1 µM [inhibitor, single point]
38 | CC1=C(c2ccc(C)cc2)S(=O)(=O)NC1=NCc1ccccc1Cl |  | active: 20.6 µM
39 | Cc1cc(OCc2cc(C(=O)N(C)C(C)c3ccccn3)no2)cc(C)c1Cl (stereo unspecified) |  | inconclusive: 20.6 µM [inhibitor, single point]
40 | O=C(Nc1ccc(NC(=O)C2CC2)cn1)c1ccccc1Cl |  | inconclusive: 23.1 µM [inhibitor, single point]
41 | C=C1CCC[C@]2(C)C[C@H]3OC(=O)C(CN[C@@H](C)c4ccccc4)[C@H]3CC12 (stereo partly specified) |  | inconclusive: 23.1 µM [inhibitor, single point]
42 | CCC(=O)Nc1ccc(S(=O)(=O)NCCc2ccccc2)cc1 |  | inconclusive: 25.9 µM [inhibitor, partial curve, poor fit]
43 | CCOC(=O)C1(CCOc2ccccc2)CCN(C(=O)c2cncs2)CC1 |  | inconclusive: 13 µM [inhibitor, partial curve]
44 | CCCCOC(=O)CSc1ncnc2sc3c(c12)CCC(C)C3 (stereo unspecified) | inconclusive: -30.2% [inhibitor] | 
45 | COc1cccc(OC)c1C(=O)OCC(=O)NCCNC(=O)COC(=O)c1c(OC)cccc1OC | inactive: -25.3% | 
46 | Cc1c(C#N)c2ccccc2n1CC(=O)NCc1cccnc1 | inactive: -20.7% | 
